Measurements taken from PMC4336329 (PLoS ONE, 2015).
The campaign covered roughly 310,000 compounds. About 14,000 (4.5%) showed an effect of 50% or more. The effect is printed as a negative number. The list shows a part of the results.

target: human ether-à-go-go-related gene (hERG) potassium channel (human, UniProt Q12809); experiment: primary screen, population patch clamp on CHO cells stably expressing hERG
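Note: peak tail current of the secondary pulse compared with the same well before compound.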

Chain of human ether-à-go-go-related gene (hERG) potassium channel (Q12809 whole entry, looked up): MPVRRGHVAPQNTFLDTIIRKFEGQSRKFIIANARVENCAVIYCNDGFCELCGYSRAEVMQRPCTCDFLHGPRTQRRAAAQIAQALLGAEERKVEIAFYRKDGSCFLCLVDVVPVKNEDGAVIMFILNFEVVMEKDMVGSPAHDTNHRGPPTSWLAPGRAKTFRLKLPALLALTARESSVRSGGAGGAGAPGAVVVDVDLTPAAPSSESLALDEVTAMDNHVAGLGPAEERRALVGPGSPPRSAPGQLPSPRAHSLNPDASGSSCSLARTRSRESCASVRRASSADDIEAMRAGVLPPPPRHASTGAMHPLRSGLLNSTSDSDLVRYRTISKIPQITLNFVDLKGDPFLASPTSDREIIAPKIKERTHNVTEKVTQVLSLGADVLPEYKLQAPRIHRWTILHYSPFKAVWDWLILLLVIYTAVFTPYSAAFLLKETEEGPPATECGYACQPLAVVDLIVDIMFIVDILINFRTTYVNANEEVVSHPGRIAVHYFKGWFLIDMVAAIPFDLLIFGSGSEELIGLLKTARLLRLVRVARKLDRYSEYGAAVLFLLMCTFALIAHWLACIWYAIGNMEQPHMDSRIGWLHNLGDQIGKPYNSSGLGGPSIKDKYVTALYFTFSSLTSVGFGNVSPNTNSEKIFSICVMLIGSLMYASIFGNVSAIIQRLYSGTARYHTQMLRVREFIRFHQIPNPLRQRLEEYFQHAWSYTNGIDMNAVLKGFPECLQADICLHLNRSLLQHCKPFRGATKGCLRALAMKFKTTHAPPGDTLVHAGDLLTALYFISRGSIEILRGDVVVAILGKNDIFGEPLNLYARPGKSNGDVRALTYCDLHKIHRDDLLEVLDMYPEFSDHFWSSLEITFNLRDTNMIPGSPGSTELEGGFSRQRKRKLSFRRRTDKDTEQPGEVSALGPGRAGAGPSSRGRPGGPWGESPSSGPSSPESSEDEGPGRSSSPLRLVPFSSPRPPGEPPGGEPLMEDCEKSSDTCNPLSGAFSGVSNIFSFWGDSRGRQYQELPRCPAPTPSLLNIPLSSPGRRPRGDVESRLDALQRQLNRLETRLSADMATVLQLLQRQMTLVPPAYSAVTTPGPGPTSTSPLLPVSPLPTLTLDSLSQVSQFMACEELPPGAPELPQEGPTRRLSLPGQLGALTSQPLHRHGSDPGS

Question: Which “hERG current change (%, negative = inhibition) at 10uM” value does the source give for `Cc1ccc2nc(N(CCCN(C)C)C(=O)c3ccc(S(=O)(=O)N4CCc5ccccc5C4)cc3)sc2c1.Cl` here?
Answer: -25.3%

Question: `O=C(Cn1cnc2ccccc2c1=O)OCCCCN1C(=O)c2ccccc2C1=O` was tested. Which “hERG current change (%, negative = inhibition) at 10uM” value did it give?
Answer: 0.306%

Question: With `Cc1nn(C)cc1S(=O)(=O)N1CCCC(C(=O)O)C1` (stereo not shown) as the molecule, how does the “hERG current change (%, negative = inhibition) at 10uM” value read?
Answer: 17.4%

Question: Which “hERG current change (%, negative = inhibition) at 10uM” value does the source give for `CCOc1cc(/C=C2\C(=O)N(CCC#N)N=C2C)ccc1OCC(N)=O` here?
Answer: 37%

Question: Which “hERG current change (%, negative = inhibition) at 10uM” value does the source give for `Cc1ccccc1NC(=O)c1cc(C(=O)c2cc(Cl)ccc2O)cn(-c2ccccc2C)c1=O` here?
Answer: -4.89%

Question: `c1ccc(-c2nn3cnnc3c3ccccc23)cc1` was tested. Which “hERG current change (%, negative = inhibition) at 10uM” value did it give?
Answer: 2.22%

Question: How did the “hERG current change (%, negative = inhibition) at 10uM” value turn out when `O=c1cnnc(N/N=C/C2CC=CCC2)[nH]1` (stereo not shown) was run?
Answer: -9.67%

Question: For `CCOC(=O)C1CCCN(Cc2nc(N)nc(Nc3ccc(OC)cc3)n2)C1` (stereo not shown), which “hERG current change (%, negative = inhibition) at 10uM” value is on record?
Answer: -75.6%

Question: For `Cc1ccc(/C=C(\C#N)C(=O)Nc2cccc3ncccc23)o1.Cl`, which “hERG current change (%, negative = inhibition) at 10uM” value is on record?
Answer: 14.1%

Question: `CC(=NCc1ccco1)c1c(O)n(Cc2ccccc2)c(=O)[nH]c1=O` was tested. Which “hERG current change (%, negative = inhibition) at 10uM” value did it give?
Answer: -7.99%

Question: Which “hERG current change (%, negative = inhibition) at 10uM” value does the source give for `CCOc1ccccc1NC(=O)CSc1ncnc2c1oc1ccccc12` here?
Answer: -1.63%

Question: Which “hERG current change (%, negative = inhibition) at 10uM” value does the source give for `Cc1ccc(C(=O)c2ccccc2C(=O)OCC(=O)NCCc2ccc(Cl)cc2Cl)cc1` here?
Answer: -9.96%

Question: How did the “hERG current change (%, negative = inhibition) at 10uM” value turn out when `FC(F)(F)c1ccc(Cl)c(NC(=S)NC2CC2)c1` was run?
Answer: 5.6%

Question: With `Cc1cccc(NC(=O)CSc2nnc(C)c(=O)n2N)c1` as the molecule, how does the “hERG current change (%, negative = inhibition) at 10uM” value read?
Answer: 13.1%

Question: For `CC(C)C(=O)N1CCN(c2ccc(NC(=O)c3ccc(Br)o3)cc2)CC1`, which “hERG current change (%, negative = inhibition) at 10uM” value is on record?
Answer: -0.0806%

Question: Which “hERG current change (%, negative = inhibition) at 10uM” value does the source give for `CCOC(=O)Cc1csc(Nc2ccc(Cl)cc2)n1` here?
Answer: 14.9%

Question: Which “hERG current change (%, negative = inhibition) at 10uM” value does the source give for `COc1cc(NC(=O)Cn2nc(-c3ccc(F)cc3)ccc2=O)ccc1-n1cnnn1` here?
Answer: 0.775%

Question: How did the “hERG current change (%, negative = inhibition) at 10uM” value turn out when `Cc1ccc(SCc2cn3cc(Cl)ccc3n2)cc1` was run?
Answer: -28.3%

Question: With `O=C1CCCc2c1nc(-c1ccc([N+](=O)[O-])cc1)n2O` as the molecule, how does the “hERG current change (%, negative = inhibition) at 10uM” value read?
Answer: 14%

Question: With `COc1ccc(NC(=O)NNS(=O)(=O)c2ccc(OC)c(OC)c2)c(OC)c1` as the molecule, how does the “hERG current change (%, negative = inhibition) at 10uM” value read?
Answer: 2.16%

Question: `O=C(COc1ccccc1[N+](=O)[O-])NC1CC1` was tested. Which “hERG current change (%, negative = inhibition) at 10uM” value did it give?
Answer: -4.45%

Question: `O=[N+]([O-])c1ccccc1NCc1c(O)ccc2ccccc12` was tested. Which “hERG current change (%, negative = inhibition) at 10uM” value did it give?
Answer: 17.9%

Question: Which “hERG current change (%, negative = inhibition) at 10uM” value does the source give for `Nc1nc(NCc2cccs2)nn1-c1ccccc1` here?
Answer: -2.03%

Question: With `O=C(C(=O)N1CCCc2ccccc21)N1CCCc2ccccc21` as the molecule, how does the “hERG current change (%, negative = inhibition) at 10uM” value read?
Answer: -25.5%

Question: `CCNc1cc2n(c(=O)n1)CCc1cc(OC)c(OC)cc1-2` was tested. Which “hERG current change (%, negative = inhibition) at 10uM” value did it give?
Answer: -19.5%
